Data: PubChem BioAssay AID504332 (National Center for Advancing Translational Sciences (NCATS), 2011)
Hit rate of the full screen: of about 350,000 compounds, about 31,000 (8.9%) were called active. Inconclusive results, whose numbers are uncertain, are shown with a selection of clear calls. Calls follow the shape of the dose curve; as a rule, active = well fitted inhibition curve with a large enough effect; inconclusive = small, poorly fitted or top-dose-only effect; inactive = no such curve, though single readings can be large or run the other way. Potencies beside an inconclusive call are fits to weak or partial responses and may not hold up.

These compounds were tested against Histone-lysine N-methyltransferase EHMT2 (Homo sapiens) (UniProt Q96KQ7) (assay: qHTS Assay for Inhibitors of Histone Lysine Methyltransferase G9a). Conditions: G9a H3K9 monomethylation, AlphaScreen, 2 h; activity, negative = inhibition: at 59 µM (top of the series) unless noted.
Chain of UniProt Q96KQ7 (Q96KQ7 whole entry, looked up): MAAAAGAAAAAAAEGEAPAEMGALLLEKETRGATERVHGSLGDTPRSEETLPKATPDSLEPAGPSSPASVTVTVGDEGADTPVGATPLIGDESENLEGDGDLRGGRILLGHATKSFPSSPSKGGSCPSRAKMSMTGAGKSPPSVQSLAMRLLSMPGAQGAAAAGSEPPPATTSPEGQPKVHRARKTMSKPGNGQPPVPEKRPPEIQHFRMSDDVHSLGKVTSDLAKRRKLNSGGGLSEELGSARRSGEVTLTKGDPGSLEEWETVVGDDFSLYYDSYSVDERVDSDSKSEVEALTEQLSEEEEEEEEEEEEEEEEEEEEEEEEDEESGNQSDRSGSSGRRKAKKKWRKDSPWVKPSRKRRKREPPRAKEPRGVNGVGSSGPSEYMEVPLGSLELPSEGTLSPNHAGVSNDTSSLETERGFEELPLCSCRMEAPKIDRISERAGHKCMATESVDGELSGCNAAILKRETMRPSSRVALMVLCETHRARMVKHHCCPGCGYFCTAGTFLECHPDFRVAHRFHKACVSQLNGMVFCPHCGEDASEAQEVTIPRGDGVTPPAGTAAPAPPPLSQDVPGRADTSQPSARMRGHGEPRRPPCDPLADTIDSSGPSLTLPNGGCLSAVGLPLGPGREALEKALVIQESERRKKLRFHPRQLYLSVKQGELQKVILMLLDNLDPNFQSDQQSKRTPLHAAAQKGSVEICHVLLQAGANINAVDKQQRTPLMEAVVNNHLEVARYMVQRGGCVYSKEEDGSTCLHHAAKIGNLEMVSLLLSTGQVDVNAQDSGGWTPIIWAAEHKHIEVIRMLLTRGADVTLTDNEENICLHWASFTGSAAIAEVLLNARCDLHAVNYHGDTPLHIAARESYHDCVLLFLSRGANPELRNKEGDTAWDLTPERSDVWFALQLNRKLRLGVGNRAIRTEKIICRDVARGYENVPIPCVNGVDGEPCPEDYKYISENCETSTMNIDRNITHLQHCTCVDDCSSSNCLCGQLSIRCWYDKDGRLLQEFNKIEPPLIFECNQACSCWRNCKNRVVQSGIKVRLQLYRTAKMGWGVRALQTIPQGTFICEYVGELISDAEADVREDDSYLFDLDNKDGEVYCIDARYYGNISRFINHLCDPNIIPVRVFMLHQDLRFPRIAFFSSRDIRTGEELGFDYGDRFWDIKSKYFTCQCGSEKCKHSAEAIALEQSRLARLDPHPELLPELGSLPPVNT
Procedure, shortened: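 Step 1: enzyme (final 20 nM) with compound, 15 min RT. Step 2: substrate peptide 500 nM and SAM 20 uM, 2 h RT. Step 3: anti-H3K9me1 antibody and AlphaScreen beads, 10 min, then plate read.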
% is scaled to controls: 0 for no effect and ±100 for the full control effect; potency is read from the fitted curve at half-maximal effect; tags tell the direction and shape of the fitted curve.
Also: nearly all actives have a fitted effect of over 75% in size.

Structure (SMILES)	Potency	activity, negative = inhibition
Cc1ccccc1-n1c(-c2ccoc2C)n[nH]c1=S	active: 2.24 µM	
CCSc1nc(O)c(C(c2cccc(OC)c2)c2c(O)nc(SCC)[nH]c2=O)c(=O)[nH]1	active: 70.8 µM	
CC(=O)N1CCC[C@@]2(CCN(C(=O)Nc3cccc(C#N)c3)C2)C1		inactive: 4.75% [at 12.7 µM]
COCCN(C(=S)Nc1c(C)cc(C)cc1C)C(C)c1cccs1 (stereo not given)	inconclusive: 56.2 µM [inhibitor, partial curve]	
O=C(O)CSCc1nc2ccccc2[nH]1	inconclusive: 14.1 µM [inhibitor, partial curve, poor fit]	
CCc1ccc(Nc2ccc(S(=O)(=O)N3CCOCC3)cc2[N+](=O)[O-])cc1	active: 28.2 µM	
CC(C)Oc1ccc(/C(O)=C2/C(=O)C(=O)N(CCN(C)C)C2c2ccco2)cc1 (stereo not given)	inconclusive: 3.55 µM [inhibitor, partial curve, poor fit]	
CCCn1c(O)c(CN2CCCCC2)c(C)c(C#N)c1=O		inactive: -19.8%
Cc1cc(C)cc(NS(=O)(=O)c2ccc3[nH]cc(C(=O)N4CCCCCC4)c(=O)c3c2)c1	inconclusive: 25.1 µM [inhibitor, partial curve, poor fit]	
CCCCC(=O)Nc1ccc(NC(=S)NC(=O)CC)cc1OC	inconclusive: 25.1 µM [inhibitor, single point]	
CCN(C(=O)c1ccc(S(=O)(=O)N2CCC(C)CC2)cc1)C1CCS(=O)(=O)C1 (stereo not given)	inconclusive: 79.4 µM [inhibitor, partial curve, poor fit]	
N#Cc1c(-c2ccccc2)nc(-c2ccccc2)[nH]c1=O		inactive: -22.5% [at 102 µM]
Cc1ccc(C)c(NC(=O)CSc2nc(=O)n(Cc3ccccn3)c3c2CCC3)c1		inactive: -1.34%
Cc1cccc(C(=O)NC2CCN(C(=O)Nc3ccc(F)cc3)CC2)c1	active: 79.4 µM	
CCN1C(=O)c2cccc3c(N)ccc1c23	active: 39.8 µM	
O=C(CSc1nc2ccccc2c(=O)n1-c1ccc(F)cc1)NC1CCS(=O)(=O)C1 (stereo not given)	inconclusive: 89.1 µM [inhibitor, partial curve, poor fit]	
O=S1(=O)CCC(NC2CCCC2)C1 (stereo not given)		inactive: 10.3% [at 102 µM]
CC1(C)Cc2c(sc(NC(=S)NC(=O)c3ccccc3)c2C(=O)O)CO1	active: 39.8 µM	
Cc1ccc(/C=C/C(=O)N2CCCC(C)C2)cc1 (stereo not given)	inconclusive: 28.2 µM [inhibitor, single point]	
COc1ccccc1N(CC(=O)Nc1ccc(C)c(Cl)c1)S(=O)(=O)c1ccc(C)cc1		inactive: -12.9%
COc1cc(OC)cc(C(=O)NCCNC(=O)c2ccco2)c1		inactive: -2.91%
O=C(c1ccc(=O)oc1)N1CCN(C(c2ccccc2)c2ccccc2)CC1	inconclusive: 89.1 µM [inhibitor, single point]	
CCOc1ccc(CC(=O)NC2CC(=O)N(c3ccc(C)c(C)c3)C2)cc1 (stereo not given)		inactive: 17.1%
CS(=O)(=O)c1ccccc1-c1nnc(NC(=O)c2cccc(N3C(=O)CCC3=O)c2)o1	inconclusive: 50.1 µM [inhibitor, partial curve]	

Structure (SMILES)	Potency	activity, negative = inhibition
COc1ccc(OC)c(C2CC(=O)OC3=C2C(=O)CC(C)(C)C3)c1 (stereo not given)	inconclusive: 89.1 µM [inhibitor, partial curve, poor fit]	
O=C(CSc1nnc(SCc2cccc3ccccc23)s1)N/N=C/c1c[nH]c2ccccc12	inconclusive: 79.4 µM [inhibitor, partial curve]	
CCC(C(=O)NCc1ccco1)n1nc(-c2ccc(OC)cc2)ccc1=O (stereo not given)	inconclusive: 50.1 µM [inhibitor, partial curve, poor fit]	
CCC(C)C(=O)Nc1ccc(OC)cc1[N+](=O)[O-] (stereo not given)	inconclusive: 0.891 µM [inhibitor, full curve]	
Cc1cc(C)c(N)cc1C		inactive: -1.02% [at 0.501 µM]
CCN(CC)c1ccc(NC(=O)c2cc(S(=O)(=O)N3CCc4ccccc43)cn2C)c(C)c1		inactive: -16.5%
Cc1ccc2cc(C(c3nnnn3CC3CCCO3)N3CCc4ccccc4C3)c(=O)[nH]c2c1 (stereo not given)	inconclusive: 2.82 µM [inhibitor, partial curve, poor fit]	
CC(=O)c1c(C)[nH]c(C(=O)CN2C(=O)NC(C)(c3ccc4c(c3)OCCO4)C2=O)c1C (stereo not given)	inconclusive: 50.1 µM [inhibitor, partial curve, poor fit]	
O=C(c1cc([N+](=O)[O-])ccc1N1CCCC1)N1CCCCC1		inactive: 2.64% [at 102 µM]
CCOc1cc(NC(=O)CC(C)C)c(OCC)cc1NC(=O)CCn1nnc2ccccc21	inconclusive: 89.1 µM [inhibitor, single point]	
COc1ccccc1NC(=O)NCc1ccccc1F		inactive: 3.11% [at 102 µM]
Cc1ccccc1OCC(=O)Nc1ccc2nc(SCC(=O)N(C)c3ccccc3)sc2c1		inactive: -28.3%
COc1ccccc1CNC(=O)CCCn1nc(C)c2sc3ccccc3c2c1=O		inactive: -25.5%
O=C(O)CCC(=O)N1CCN(Cc2ccc3c(c2)OCO3)CC1	inconclusive: 89.1 µM [inhibitor, single point]	
CS(=O)(=O)Nc1nnc(SCC(=O)Nc2cccc([N+](=O)[O-])c2)s1	inconclusive: 22.4 µM [inhibitor, single point]	
O=C(/C=C/c1ccc2c(c1)OCO2)Nc1nc(-c2ccccc2)cs1		inactive: -9.41%
Cc1cc(NS(=O)(=O)c2ccc(NC(=O)CSc3nc4ncc(Cl)cc4[nH]3)cc2)nc(C)n1	active: 44.7 µM	
CN(C)/C=C1/Sc2ccccc2C1=O		inactive: -21%
CCC(C)OC(=O)c1[nH]c2c(c1C)C(=O)CC(c1ccc(N(C)C)cc1)C2 (stereo not given)	active: 14.1 µM	
CC(C(=O)O)n1nc2ccccc2n1 (stereo not given)		inactive: -44.1%
CCOC(=O)C1CCN(C(=O)c2ccc(CNS(=O)(=O)c3ccc(C)cc3)cc2)CC1	inconclusive: 35.5 µM [inhibitor, full curve]	
COC(C[C@@H]1O[C@@H]1[C@H](O)[C@H](C)OCc1ccccc1)OC		inactive: 25.6%
COc1cccc(C(=O)N2CCC(C(=O)N3CCN(C)CC3)CC2)c1	inconclusive: 50.1 µM [inhibitor, partial curve]	
Cc1sc2nc(CN3CCCCC3)nc(Cl)c2c1C	inconclusive: 3.16 µM [inhibitor, partial curve, poor fit]	

Structure (SMILES)	Potency	activity, negative = inhibition
CCOc1ccc(S(=O)(=O)Nc2nc3cc(OC)ccc3s2)cc1	inconclusive: 89.1 µM [inhibitor, single point]	
CCOc1ccccc1N1CCN(C(=O)c2ccc(NS(=O)(=O)c3ccc4[nH]c(=O)[nH]c4c3)cc2)CC1	inconclusive: 50.1 µM [inhibitor, partial curve, poor fit]	
O=C(O)CC1Sc2ccccc2NC1=O (stereo not given)	inconclusive: 25.1 µM [inhibitor, single point]	
CCC(=O)N1CC2(CC(c3cccc([N+](=O)[O-])c3)=NO2)C[C@H]1C(=O)NCC(N)=O (stereo not given in full)	inconclusive: 7.94 µM [inhibitor, partial curve, poor fit]	
C=CCn1c(SCC(=O)Nc2sccc2C(N)=O)nc2sc(C)c(C)c2c1=O		inconclusive: -93.4% [inhibitor]
CCCC1Cc2c(sc(N)c2C#N)CO1 (stereo not given)	inconclusive: 35.5 µM [inhibitor, single point]	
O=C(C1=C[C@@H]2[C@H]3C(=O)N(c4ccc(Cl)cc4)C(=O)[C@H]3[C@@H](C(=O)c3ccc(Cl)cc3)N2C=C1)c1ccccc1	inconclusive: 2.24 µM [inhibitor, full curve, poor fit]	
Cc1cc(CN2CCC(n3nccc3NC(=O)c3ccccc3C)CC2)n[nH]1		inactive: 81.5% [at 102 µM]
CCOc1ccccc1NC(=O)CCS(=O)(=O)c1ccc2c(c1)CC(C)N2C(C)=O (stereo not given)	active: 25.1 µM	
COC(=O)C1Cc2c([nH]c3ccccc23)C2(CCN(Cc3ccccc3)CC2)N1 (stereo not given)	active: 44.7 µM	
COc1ccc(Cl)cc1NC(=O)c1cc2ccc3ccc(C)[nH]c3c2n1	inconclusive: 25.1 µM [inhibitor, partial curve, poor fit]	
CCN1CC=C2C(C#N)=C(N)C(C#N)(C#N)C(c3cc(Cl)ccc3Cl)C2C1 (stereo not given)	inconclusive: 50.1 µM [inhibitor, partial curve, poor fit]	
CC(C)CCNC(=O)C1CCN(S(=O)(=O)c2ccc(-n3cnnn3)cc2)CC1	inconclusive: 35.5 µM [inhibitor, partial curve, poor fit]	
N#Cc1c(NC(=O)CSc2nc(-c3ccco3)cc(C(F)(F)F)n2)sc2c1CCCC2		inconclusive: -94.8% [inhibitor]
Cc1ccc(-n2nc3ccc(N)cc3n2)cc1C	active: 10 µM	
N#Cc1nc(-c2ccco2)oc1N1CCN(c2ccccc2)CC1		inconclusive: -68.9% [inhibitor]
CN(C(=O)c1sc2nc(N3CCCC3)c3c(c2c1N)CC(C)(C)OC3)c1ccccc1	active: 44.7 µM	
N#CCOc1ccccc1/C=C/c1nc2ccccc2c(=O)[nH]1	inconclusive: 89.1 µM [inhibitor, single point]	
CCCCn1c(N)c(N(Cc2ccccc2)C(=O)COc2ccccc2F)c(=O)[nH]c1=O	inconclusive: 79.4 µM [inhibitor, partial curve, poor fit]	
COCCn1c(-c2ccsc2)nc2c1c(=O)[nH]c(=O)n2CC(C)C	inconclusive: 8.91 µM [inhibitor, partial curve, poor fit]	
COc1ccccc1CNc1nc2ccccc2c2nc(-c3cccnc3)nn12		inactive: 7.07%
Cc1cccc(C(=O)NCC(c2ccco2)N2CCc3ccccc32)c1 (stereo not given)		inactive: -5.13% [at 2.33 µM]
